Reference: PubChem BioAssay AID463173 (ICCB-Longwood Screening Facility, Harvard Medical School, 2010)
Out of some 52,000 compounds screened, about 1,700 (3.3%) were called active. Rule as the data show it: active = survival mostly below about 52% (no sharp cut-off); inactive = mostly above about 56%. Some of the results follow.

Each compound was assayed on Wild type (assay: growth inhibition of S. aureus wild type versus tarO mutant, primary screen, teichoic acid synthesis inhibitors, RN4220, OD600 (AID 463173)). Settings: S. aureus RN4220 wild type/DeltatarO growth, OD600, 18 h, active compounds read low, screened at 18.75 µg/mL (by protocol).

SMILES	survival
Cc1nc2ccn(Cc3ccco3)c(=O)c2cc1C(=O)N1CCN(c2ccccc2F)CC1	inactive: 78%
COc1ccc(NC(=O)Cc2coc3cc(C)cc(C)c23)c(OC)c1	inactive: 88%
COc1ccc2c(c1)c1c(c(=O)n(Cc3ccccc3)c(=O)n1Cc1cc(C)ccc1C)n2C	inactive: 64%
Cc1ccc(S(=O)(=O)N2CCCC(c3nc4c(nnn4Cc4ccc(OC(F)(F)F)cc4)c(=O)[nH]3)C2)cc1 (centres undefined)	inactive: 86%
CCOC(=O)c1ccc2c(c1)N(Cc1cccc([N+](=O)[O-])c1)C(=O)c1ccccc1S2	inactive: 77%
Cn1nc(-c2ccc(OCC(=O)Nc3ccccc3)cc2)c2ccccc2c1=O	inactive: 75%
O=C(Cn1c(=O)nc(-c2ccccc2)c2cc(Cl)ccc21)NCc1ccccc1	inactive: 68%
CC(=O)Cn1nnc2sc(-c3ccccc3)cc2c1=O	inactive: 82%
Cc1c(Cl)cccc1Nc1sc(C(=O)c2ccccc2)c(N)c1S(=O)(=O)c1ccccc1	inactive: 91%
COCCNC(=O)c1cc2n(n1)CCCN(Cc1ccc(C)cc1)C2=O	inactive: 73%
COC(=O)N1N=C(c2ccccc2)CC1(O)C(F)(F)F (centres undefined)	inactive: 102%
O=c1c2c([nH]c3ccccc13)CCC2	inactive: 107%
O=C1CC(c2nc3ccccc3n2Cc2c(F)cccc2Cl)CN1c1cccc(C(F)(F)F)c1 (centres undefined)	inactive: 73%
CSc1cccc(N2C(=O)N(Cc3ccc([N+](=O)[O-])cc3)c3ccccc3S2(=O)=O)c1	inactive: 99%
CCC1C(=O)N=C(SCC(=O)Nc2cccc3ccccc23)NC1=O (centres undefined)	inactive: 97%
CN(Cc1ccccc1)C(=O)c1cc2c(=O)n(C)c3ccccc3c2s1	inactive: 82%
CCOC(=O)N1CCc2c(sc3c2c(=O)n(Cc2ccccc2)c(=O)n3Cc2c(F)cccc2Cl)C1	inactive: 74%
O=C(CN1CCN(c2ncccn2)CC1)N(Cc1ccccc1)c1ccc(F)cc1	inactive: 104%
COc1ccc(CC(=O)Nc2c(C(=O)Nc3ccccc3F)oc3ccccc23)cc1	inactive: 85%
COc1ccc(NC(=O)CC2C(=O)N(c3ccc(C)cc3)C(=O)N2CCc2ccccc2)cc1 (centres undefined)	inactive: 79%
O=C(N1CCCCC1)C1(c2ccccc2)CCOCC1	inactive: 103%
Brc1ccc(-c2cc3c(N4CCN(c5ccccc5)CC4)nccn3n2)cc1	inactive: 151%
Cc1ccccc1NC(=O)c1sc2nc(-c3ccncc3)ccc2c1N	inactive: 78%

SMILES	survival
O=C(c1cc2ccccc2o1)N1CCCC1	inactive: 117%
O=C(c1ccccc1)N1CCN(Cc2ccccc2)CC1	inactive: 91%
O=C(CC1C(=O)N(c2ccc(F)cc2)C(=O)N1Cc1cccnc1)Nc1ccc(F)cc1 (centres undefined)	inactive: 99%
CCCCOc1cccc(C(=O)Nc2cc3nn(-c4ccc(F)cc4)nc3cc2C)c1	inactive: 79%
CCCN(CCC)CCCNC(=O)Cn1ncc2c3ccccc3n(Cc3ccc(F)cc3)c2c1=O	inactive: 86%
CC1=C(C(=O)Nc2ccccc2C)C(c2ccccc2O)NC(=S)N1 (centres undefined)	inactive: 107%
CCOC(=O)c1ccc(N2C(=O)c3n[nH]c(-c4cccs4)c3C2c2ccc(C)cc2)cc1 (centres undefined)	inactive: 66%
Cc1cc(NCCN)nc2ccccc12	inactive: 104%
COc1cccc(CNC(=O)CCNS(=O)(=O)c2cccc3nsnc23)c1	inactive: 124%
Cc1cc2ccccc2n1-c1ccc(C(=O)N2CCCCC2)s1	inactive: 63%
Cc1nc(C)c(-c2ccc(SCC(=O)Nc3ccccc3F)nn2)s1	inactive: 128%
COCCCNC(=O)CCCn1c(=O)c2cccn2c2cccnc21	inactive: 88%
CCn1cc(S(=O)(=O)c2ccccc2)c(=O)c2cc(C)ccc21	inactive: 125%
COc1cc(OC)cc(C(=O)Nc2ccc(S(=O)(=O)Nc3cc(C)nc(C)n3)cc2)c1	inactive: 75%
CCOC(=O)c1[nH]c2ccccc2c1NC(=O)c1ccc(OC(C)C)cc1	inactive: 75%
COc1ccc(C)cc1NC(=O)CSc1nnc(Cn2nnc3ccccc32)n1C	inactive: 113%
COc1ccc(CCN2CC(C(=O)NCCc3ccc(C)cc3)CC2=O)cc1OC (centres undefined)	inactive: 60%
CCCCn1c(COc2cccc(OC)c2)nc2ccccc21	inactive: 88%
CC(C)(CC(=O)OCC(=O)Nc1ccc(F)c(Cl)c1)CC1=NS(=O)(=O)c2ccccc2N1	inactive: 57%
COc1cc(NC(=O)c2cc3c(=O)oc4ccc(C)cc4c3s2)cc(OC)c1OC	inactive: 82%
O=C(CSc1nccn1-c1ccc(Cl)cc1)Nc1nc2ccccc2s1	inactive: 85%
O=C(NC1CC(=O)N(c2ccc(F)cc2)C1)c1ccc(S(=O)(=O)N2CCCCC2)cc1 (centres undefined)	inactive: 83%
O=c1c2sc3ccccc3c2n(Cc2cccc(F)c2)c(=O)n1Cc1ccccc1	inactive: 97%

SMILES	survival
CCOC(=O)Cn1c(=O)n(CC2CCCO2)c2nc(-c3ccccc3OC)nc(C(N)=O)c21 (centres undefined)	inactive: 81%
O=C(NCc1cccs1)c1ccc2c(=O)n3nc(Nc4ccccc4)sc3nc2c1	inactive: 72%
Cc1cccc2sc(N(Cc3cccnc3)C(=O)CCc3ccccc3)nc12	inactive: 127%
CCOC(=O)c1ccc(N2C(=O)c3[nH]nc(-c4ccccc4)c3C2c2ccc(CC)cc2)cc1 (centres undefined)	inactive: 89%
CCCn1c(N2CCN(CC(=O)Nc3ccc(Cl)cc3)CC2)nc2ccccc21	inactive: 118%
COc1ccccc1CNC(=O)C1CCCN(S(=O)(=O)c2ccc3c(c2)oc(=O)n3C)C1 (centres undefined)	inactive: 92%
COc1ccc(-c2cc(C(=O)Nc3c(C(=O)c4ccc(C)cc4)oc4ccccc34)no2)cc1	inactive: 80%
O=C(c1ccc2c(c1)N(Cc1ccccc1F)C(=O)c1ccccc1S2(=O)=O)N1CCC(Cc2ccccc2)CC1	inactive: 83%
O=C(Cn1c(=O)n(Cc2nc(-c3ccccc3)no2)c(=O)c2ccccc21)Nc1cccc(C(F)(F)F)c1	inactive: 89%
Cc1c(Cl)cccc1NC(=O)CC1Oc2ccccc2NC1=O (centres undefined)	inactive: 89%
CCOc1ccccc1C(=O)N(Cc1ccco1)Cc1ccco1	inactive: 83%
CC1C(=O)Nc2ccc(S(=O)(=O)N3CCCCC3)cc2NC1=O (centres undefined)	inactive: 87%
CCC(CC)C(=O)OCc1cc(=O)n2nc(C3CC3)sc2n1	inactive: 83%
CC1=C(c2ccc(Cl)cc2)S(=O)(=O)NC1=NCCCN1CCN(c2cc(C)ccc2C)CC1	inactive: 69%
O=C(CCCn1c(=O)c2cccn2c2ccccc21)Nc1cc(C(F)(F)F)ccc1Cl	inactive: 80%
Cn1cc(-c2cc3n(n2)CCC(=O)N3CCCC(=O)NCc2ccc(Cl)cc2)c2ccccc21	inactive: 124%
CC(C(=O)Nc1ccccc1C(=O)N1CCCC1)n1nnc2ccccc21 (centres undefined)	inactive: 127%
CCOc1ccccc1NC(=O)CN1C(=O)COc2ccc(S(=O)(=O)N3CCOCC3)cc21	inactive: 98%
CC(C)C(OC(=O)c1cc2occc2n1C(C)C)C(=O)NCC1CCCO1 (centres undefined)	inactive: 123%
CCOc1ccc(NCc2cccn2-c2nnc(N3CCC(C(=O)NCC(C)c4ccccc4)CC3)s2)cc1 (centres undefined)	inactive: 80%
COc1ccc(Cn2c(CCC(=O)Nc3cc(OC)c(OC)c(OC)c3)nc3cccnc32)cc1	inactive: 132%
O=C(CSc1nccn1Cc1ccccc1)NCc1ccco1	inactive: 99%
Cc1cc(C)n(C(C)CC(=O)Nc2cccc(C(F)(F)F)c2)n1 (centres undefined)	inactive: 72%

SMILES	survival
CCN(CC)c1ccc(NC(=O)C2CCN(c3nnc(-n4cccc4)s3)CC2)c(C)c1	inactive: 65%
CCN(c1ccccc1)S(=O)(=O)c1ccc(NC(=O)c2nc(SC)ncc2Cl)cc1	inactive: 88%
CC(C)(C)OC(=O)N1CCC(c2c(C(=O)NCc3cccc(Cl)c3)cnn2-c2ccc(F)cc2)CC1	inactive: 78%
CCOc1ccc(CN2CCc3nc(N4CCN(c5ccccc5OC)CC4)ncc3C2)cc1OC	inactive: 111%
O=C(Nc1cc(-c2nc3ccccc3o2)ccc1Cl)c1sc2c([N+](=O)[O-])cccc2c1Cl	inactive: 96%
COc1cc(/C=C(\C#N)C(=O)NCC2CCCO2)ccc1O (centres undefined)	inactive: 94%
CCc1ccccc1NC(=O)CSc1nc(-c2cccc(Cl)c2)nc2c1Cc1c(CO)cnc(C)c1O2	inactive: 83%
CCN1CCCC1CNC(=O)Nc1c[nH]c2ccc(OC)cc2c1=O (centres undefined)	inactive: 107%
CC1CCN(C(=O)Cn2c(=O)n(CC3CCC(C(=O)NC(C)C)CC3)c(=O)c3sccc32)CC1 (centres undefined)	inactive: 78%
CCOC(=O)c1ccc(NC(=O)CC2C(=O)N(c3ccc(F)cc3)C(=O)N2Cc2cccnc2)cc1 (centres undefined)	inactive: 69%
O=C(NCCCN1CCCCC1)c1sc2ncccc2c1-n1cccc1	inactive: 90%
Cc1ccccc1C(=O)Nc1nnc(S(=O)(=O)N(C)Cc2ccccc2)s1	inactive: 89%
COc1ccc(-n2c(-c3ccc(C)cc3)cc3c2CC(C)(C)CC3=O)cc1Cl	inactive: 85%
Cc1[nH]c(=O)[nH]c(=O)c1N	inactive: 100%
COc1ccc(-c2nc(SCC(=O)NC3CCCC3)c(-c3ccc(F)cc3)[nH]2)cc1	inactive: 76%
CC(C)c1ccc(Cn2c(COc3ccccc3)nc3ccccc32)cc1	active: -1%
CCn1nc(C)c2c(-c3ccccc3)cc(=O)n(C(C)C(=O)NCCC(C)C)c21 (centres undefined)	inactive: 71%
COc1ccc(S(=O)(=O)NCC(c2ccco2)S(=O)(=O)c2ccc(C)cc2)cc1F (centres undefined)	inactive: 78%
NC(=Nc1ccccc1)SC1CC(=O)N(c2ccccc2)C1=O (centres undefined)	inactive: 113%
COc1ccc(CNS(=O)(=O)c2ccc(N3CCCCS3(=O)=O)cc2)cc1	inactive: 83%
